In PubChem BioAssay AID1963576 (National Center for Advancing Translational Sciences (NCATS), 2024):
Out of some 46,000 compounds screened, about 60 (0.1%) were called active. Another 3% or so got no clear call; they are omitted. The call rests on the fitted dose curve; in most records, active means well fitted inhibition curve with a large enough effect; inconclusive means small, poorly fitted or top-dose-only effect; inactive means no such curve, though single readings can be large or run the other way. Some of the results follow.

Test: Primary qHTS assay for Inhibitors of ovarian cancer metastasis using an organotypic tumor microenvironment (TME) model. Further: nearly all actives have a fitted effect of over 65% in size.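 On activity change, negative = inhibition: plate controls were DMSO wells for no effect and tomatine positive control wells for full effect.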
Settings: SKOV3ip1-GFP adhesion/invasion on 3D omental model, fluorescence; series mostly up to 45.8 µM; activity change, negative = inhibition: at the top concentration
How it was run: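 qHTS, 4-pt dose (0.36-46 umol/L); SKOV3ip1-GFP, 1,200 cells/well, no FBS; primary omental fibroblast/mesothelial co-culture 48 h pre-grown; 2 h RT + 16 h 37 C; PBS wash, 4% PFA; GFP count 488/509 nm.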

Activity change, negative = inhibition, inactive:
O=C1CCc2cc(S(=O)(=O)NC(C(=O)Nc3cccc(F)c3)c3ccccc3)ccc2N1 (centres undefined) 7.84%
Cc1ccc(C)c(Nc2nnc(-c3ccc(C)c(S(=O)(=O)NCC4CCCO4)c3)c3ccccc23)c1 (centres undefined) -21.8%
O=C(Cn1c(=O)n(Cc2nc(-c3ccccc3)no2)c(=O)c2ccccc21)Nc1cccc(Cl)c1 -6.28%
COC(=O)c1cc(NC(=O)c2cc3sccc3n2Cc2ccc(Cl)cc2)cc(C(=O)OC)c1 6.15%
CCOc1ccc(NC(=O)CSc2oc(-c3ccccc3)nc2S(=O)(=O)c2ccc(Cl)cc2)cc1 -0.835%
COc1ccc(C(=O)/C=C/c2cn(CC(O)CN3CCc4ccccc43)c3ccccc23)cc1 (centres undefined) -13.6%
COc1cccc(NC(=O)c2oc3ccccc3c2NC(=O)C2CCCCC2)c1 -3.57%
O=C1NC(NS(=O)(=O)c2ccccc2)(C(F)(F)F)C(=O)N1c1ccc(F)cc1 (centres undefined) 6.55%
CCN(CC)S(=O)(=O)c1ccc(C(=O)Nc2nc3ccc(Cl)cc3s2)cc1 -1.85%
COc1cc(OC)cc(-c2nc3nc(C)c(CCC(=O)Nc4ccc(C)cc4C)c(C)n3n2)c1 -3.82%
COc1ccccc1NC(=O)Cn1c(=O)c(CNc2ccccc2)cc2cc(OC)c(OC)cc21 8.08%
Cc1cccc(CNC(=O)c2ccc3c(c2)c(C)c(C)n3Cc2ccccc2)c1 -8.94%
COc1ccccc1C1C=C(c2ccc(C(C)C)cc2)Nc2nnnn21 (centres undefined) 4.68%
CSc1ncc(Cl)c(C(=O)N(Cc2ccc(C)cc2)C2CCS(=O)(=O)C2)n1 (centres undefined) -7.73%
Fc1ccc(-n2ncc3c(Nc4cccc(Cl)c4)ncnc32)cc1 -18.6%
O=C(c1cnn(-c2ccc(F)cc2)c1-n1cccc1)N1CCN(c2ccc(Cl)cc2)CC1 5.39%
Cc1ccc(S(=O)(=O)c2nnn3c2nc(NCc2cccs2)c2sccc23)cc1 3.49%
O=C(CCn1ccc2cc(S(=O)(=O)N3CCCC3)ccc21)NCc1ccccc1F 0.555%
COc1cccc(NC(=O)Cn2cc(S(=O)(=O)Cc3ccccc3F)c3ccccc32)c1 -5.23%
CCc1ccc(NC(=O)CN2C(=O)CSc3ccc(S(=O)(=O)N(C)C)cc32)cc1 32.8%
Cc1ccc(C)c(NC(=O)Cn2cc(S(=O)(=O)Cc3cccc(Cl)c3)c3ccccc32)c1 9.52%
Cc1cc(OC(C)C(=O)N(Cc2ccc(N(C)C)cc2)Cc2ccco2)ccc1Cl (centres undefined) 3.17%
Cc1ccccc1C(=O)Nc1cccc(OCc2cc(=O)n3cccc(C)c3n2)c1 2.02%
CCOc1ccc(NC(=O)N2CCN(c3ccc(Cl)c(Cl)c3)CC2)cc1 -24.5%
COc1ccc(-c2noc(CN(C(=O)C(C)Oc3ccc(C)cc3)C(C)C)n2)cc1 (centres undefined) 16.8%
O=C(NCc1ccccc1)c1ccc2c(c1)CCN2S(=O)(=O)c1ccc(Cl)cc1 8.45%
Cn1nnc2c(N3CCN(c4ccc(F)cc4)CC3)ncnc21 -14.6%
Cc1ccccc1CNC(=O)CCS(=O)(=O)c1cc2c3c(c1)CCN3C(=O)CC2 6.56%
CCOc1cccc(CNC(=O)c2ccc(N3CCCC3)c(NC(=O)NCc3ccccc3)c2)c1 8.53%
CC(C)Oc1ccc(C(=O)N(Cc2ccc(N(C)C)cc2)C2CCS(=O)(=O)C2)cc1 (centres undefined) 1.51%
CCc1ccc(NCc2cc3ccc(OC)cc3n(CC(=O)Nc3c(C)cc(C)cc3C)c2=O)cc1 -1.02%
COc1ccccc1N1CCN(C(=O)CCS(=O)(=O)c2ccc3c(c2)oc(=O)n3C)CC1 0.694%
Cc1ccc(Nc2sc(C(=O)c3ccccc3)c(N)c2S(=O)(=O)c2ccccc2)cc1Cl -1.11%
COc1ccccc1NC(=O)c1oc2ccccc2c1NC(=O)Cc1ccccc1 -14.1%
CCOC(=O)c1nc(Nc2ccc(C(=O)OC(C)C)cc2)c2ccccc2n1 -10.8%
COc1ccc(O)c(C2=Nc3ccccc3N=C(c3ccccc3)C2)c1 -5.73%
COc1cc(C(=O)NCCc2csc(-c3ccc(Cl)cc3)n2)cc(OC)c1OC 2.63%
O=C(CN1C(=O)CC(c2ccccc2)=Nc2ccccc21)Nc1ccc(Br)cc1 -5.51%
O=C(NCCc1ccccc1)c1ccc(Nc2nc3ccccc3n3nnnc23)cc1 -9.84%
Cc1ccc2c(c1)N(C(=O)Nc1cccc3c1CCCC3)CCO2 -2.17%
Cc1cccc(CCNC(=O)c2cc3c(s2)-c2c(C)cccc2OC3)c1 -16.6%
CCOC(=O)c1c(NC(=O)CSc2cn(CCNC(=O)c3ccc(OC)cc3)c3ccccc23)sc2c1CCCC2 -4.44%
COc1ccc(C2c3c(n(C)c4ccccc34)C(=O)N2CC(=O)Nc2cccc(Cl)c2)cc1 (centres undefined) -7.3%
COc1cccc(CNC(=O)c2cccc(-n3c(C)nc4cccnc43)c2)c1OC 8.94%
Cc1cc(=O)n(Cc2ccc(Cl)cc2)c2c1c(C)nn2-c1ccccc1 1.47%
O=C(Cn1c(=O)n(-c2ccccc2)c(=O)c2c3c(sc21)CCCC3)Nc1ccc(F)cc1F -0.923%
Cc1ccc(C)c(NC(=O)C2CCCN(c3ncnc4onc(C)c34)C2)c1 (centres undefined) -4.06%
N#Cc1nc(-c2ccc(COc3ccc(Cl)cc3)o2)oc1N1CCC(C(N)=O)CC1 -3.07%
O=C(CSc1cn(CC(=O)N2CCCCC2)c2ccccc12)Nc1ccccc1 -3.85%
COc1ccc(OC)c(C2=NS(=O)(=O)N(C)C(C(=O)Nc3ccc(F)cc3F)=C2)c1 2.76%
CC1CCN(c2nn3c(=O)c(C(=O)NC(C)C)cnc3s2)CC1 3.85%
O=C(NCC(c1ccco1)S(=O)(=O)c1cccs1)c1ccc(F)c(F)c1 (centres undefined) 6.38%
O=C(NCc1noc2ccccc12)N1CCN(c2ccccc2)CC1 1.47%
O=C(Cn1c(=O)n(Cc2ccccc2)c(=O)c2sc3ccccc3c21)Nc1ccccc1 -6.92%
CCN1CCOC(=O)C1CC(=O)Nc1ccc(Br)cc1 (centres undefined) -2.29%
Cc1ccc(Cl)cc1NC(=O)c1sc(-n2nc(C)c(Cc3ccc4c(c3)OCO4)c2C)nc1C -4.86%
CCOc1ccc(-c2cc3nc(C4CCN(C(=O)OC(C)(C)C)CC4)c(C(=O)Nc4cc(OC)ccc4OC)cn3n2)cc1 -3.41%
Cc1nn(C)c2c1c(-c1ccccc1)cc(=O)n2CC(=O)NC(C)c1ccccc1 (centres undefined) 19.7%
COc1ccc(-n2c(-c3ccco3)nc3c(cnn3-c3ccccc3Cl)c2=O)cc1 51.2%
CCCCCn1c(CN2CCN(c3ccc(OC)cc3)CC2)nc2c1c(=O)[nH]c(=O)n2C 15.4%
Cc1ccc(Nc2nnc(-c3ccc(C)c(S(=O)(=O)N4CCOCC4)c3)c3ccccc23)cc1 -2.35%
Cc1cc(C)c2c(=O)cc(C(=O)Nc3sc4c(c3C(=O)NCC3CCCO3)CCCC4)oc2c1 (centres undefined) -24.7%
COCCNC(=O)c1ccc2nc(Cc3ccccc3)oc2c1 17.1%
Cc1cc(=O)n(Cc2ccccc2)c2c1c(C)nn2C -6.25%
COc1ccc(C)cc1NC(=O)CC1NCCNC1=O (centres undefined) 3.64%
CCOC(=O)c1ccc(NC(=O)CSc2nc3ccccc3c(=O)n2CCC(=O)NC2CCCCC2)cc1 -3.14%
CC(=O)c1ccc(N2CCN(c3ccc4cc(S(=O)(=O)N5CCCCC5)ccc4n3)CC2)cc1 9.37%
CCC(=O)C1=C(c2ccc(OC)c(OC)c2)N(C(=O)CC)n2c(nnc2-c2ccc(C)cc2)S1 5.98%
CC(=O)c1cc(-c2ccccc2)n(CC(=O)Nc2ccc(C)c(C)c2)c1C -6.25%
COc1ccc(OC)c(CNS(=O)(=O)c2ccc(-c3coc(C)n3)cc2)c1 -1.79%

outcome, inactive:
COc1ccc(S(=O)(=O)N2CCN(Cc3nc4ccc(C)cc4o3)CC2)cc1
CCc1ccccc1NC(=O)CCCN1C(=O)CCn2nc(-c3cn(C)c4ccccc34)cc21
Cc1cc(N2CCC(C(=O)N(CC(C)C)CC(C)C)CC2)n2nc(C)c(-c3ccc(Cl)cc3)c2n1
O=S(=O)(c1ccccc1)c1nnn2c1nc(NCc1ccc(Cl)cc1)c1sccc12
O=C1CCc2cc(S(=O)(=O)NCc3ccccc3Cl)cc3c2N1CC3
Cc1cc(C)cc(OCc2cc(=O)n3c(-c4ccccc4)csc3n2)c1
CCn1nc(C)c2c(-c3ccccc3)cc(=O)n(C(C)C(=O)NCc3ccccc3OC)c21 (centres undefined)
CCn1cc(C(=O)NCCc2ccc(OC)c(OC)c2)c(=O)c2cc(S(=O)(=O)N(C)C3CCCCC3)ccc21
COc1ccc2cc3c(N)nn(C(=O)c4ccccc4Cl)c3nc2c1
COc1ccc(Cl)cc1NC(=O)Cn1ccn(-c2cc(C)cc(C)c2)c(=O)c1=O
CCc1ccc(CNC(=O)Cn2nc(-c3ccc(C)cc3)ccc2=O)cc1
Fc1ccc(-n2ncc3c(Nc4ccc5c(c4)OCCO5)ncnc32)cc1
Cc1ccc(N2CCN(C(=O)c3cc4cc5ccc(C)cc5nc4s3)CC2C)cc1 (centres undefined)
COc1ccc(-c2noc(CSc3nnc(C)n3-c3cccc(C)c3)n2)cc1
CNC(=O)c1ccc2c(c1)N(Cc1cc(C)ccc1C)C(=O)c1ccccc1S2
CCCN1CCN(C(=O)Cn2c(-c3cccs3)cc3cc(F)ccc32)CC1
COc1ccc(CNC(=O)c2ccc(-c3nc(CSc4ccc(C)cc4)c(C)o3)cc2)c(OC)c1
COc1ccc(OC)c(S(=O)(=O)NCCS(=O)(=O)N2CCN(c3ccccc3)CC2)c1
Cc1nc(-c2ccccc2)sc1-c1ccc(SCC(=O)NCc2ccccc2Cl)nn1
CCc1ccccc1NC(=O)N1CCCn2nc(C)cc21
CCCOc1ccc(C2c3c(-c4c(C)cc(C)cc4O)n[nH]c3C(=O)N2CCO)cc1 (centres undefined)
Cc1ccc(Cl)cc1NC(=O)Nc1cccc(OCc2cc(=O)n3ccccc3n2)c1
CC(C)N(CCCNC(=O)Cn1ncc2c([nH]c3ccccc32)c1=O)Cc1ccccc1
COc1ccc(-c2nc(CS(=O)(=O)CC(=O)NCCc3ccc(C)cc3)c(C)o2)cc1
